Test results as given in paper PMC12136788.
The other results are listed elsewhere or left out.

T1: UNK ZnF1-3 (human, UniProt Q9C0B0 31-174)
T1 sequence: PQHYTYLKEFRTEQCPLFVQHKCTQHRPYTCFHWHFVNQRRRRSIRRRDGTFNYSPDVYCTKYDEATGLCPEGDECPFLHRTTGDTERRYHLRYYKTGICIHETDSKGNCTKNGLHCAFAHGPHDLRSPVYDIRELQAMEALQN

B1: chr16:15155627:15155628:-_ENSG00000085721_ENST00000198767|hu_mus|FALSE|FALSE (ssRNA)
RNA: GGGAGUUCUACAGUCCGACGAUCUUGCGCAGCUCAAUCAUAGAUCCUUGUGAGGAGUGGAGACUGGCCUGGUAUAUACAGCACAGGAGGGGAGCCCACACUACUGGAAGGACUUUGGAAGUGGGUAUCAAAGGAGCUCGGAGUCAACAGAGGAUUGAGCAUCA
B2: 160217689_160217809_4014_3pUTR_ENSG00000186432_ENST00000334256|human|control|control (ssRNA)
RNA: GGGAGUUCUACAGUCCGACGAUCAGUUGUCUCGGUCUGUUUUACUGGAGAAUGAAGGAAAGUUAAAACCUUGCUUUGGAUAGAGAGAAAACUGAAGCACUGAUGGUGUCAACUGGACAAACUCAGUGGGCUAAAAUAUUAAUACAACAGAGGAUUGAGCAUCA
B3: chr14:62207507:62207508:+_ENSG00000100644_ENST00000337138|hu_hu|FALSE|FALSE (ssRNA)
RNA: GGGAGUUCUACAGUCCGACGAUCUGACAACUGAUCGAAGGAACGUAACUGGAAGUCAUCAUCCAUUGGGAUAUAGGGAGCUAACAUCUCCAAGUCUAAAUCUGUGUCCUGAGUAGAAAAUGGGUUCUUUGCUUCUGUGUCUUCCAACAGAGGAUUGAGCAUCA
B4: 154942573_154942693_590_CDS_ENSG00000160691_ENST00000448116|human|control|control (ssRNA)
RNA: GGGAGUUCUACAGUCCGACGAUCCUUAUUGACAAAGCUCCCGUGGCGGGUCCACUCCUCGCCCCCAAGCUGGCCCCCUUCCACCCGAGUCCUGCGCCCGCCGCCUCCACUCAGCUUGUUCAUGUCCUGGAGGAGGGGUAGGGGCAACAGAGGAUUGAGCAUCA
B5: chr7:99056824:99056825:-_ENSG00000241468_ENST00000394186|hu_hu|FALSE|FALSE (ssRNA)
RNA: GGGAGUUCUACAGUCCGACGAUCUCAGUGGUAUUUGCGGAGCCGCUCGUGCUUGAGAUGCUUGUAGGAAAAGGAGUAGCUAAAGAGCACGUAGCAUGCCAGCACCAUGGUAAUCCCCGAGAUGCUCCCCUUCUUCACAUUGAUCAACAGAGGAUUGAGCAUCA
B6: chr5:50689391:50689392:+_ENSG00000016082_ENST00000230658|hu_mus|FALSE|FALSE (ssRNA)
RNA: GGGAGUUCUACAGUCCGACGAUCAAUAGGACUGGCUACCAUGCUGUUGGGUGUAUCUGGGAGCUGCGAGGACAUCGAUGCUACUUCACUGCCAGUAGAAUUAGAGCCUGGUCCUCCUUCUGAAAAAUUGACCAGUUGCUGAAACAACAGAGGAUUGAGCAUCA
B7: chr1:74670475:74670476:+_ENSG00000254685_ENST00000370898|hu_mus|FALSE|FALSE (ssRNA)
RNA: GGGAGUUCUACAGUCCGACGAUCGUUCUGUUGACCAAAGCUUCGUUGUCUAUGCACAGCAUUAAAGCGGUGCAUGUUUUCAAUGGUGGGCUUGUGGAGGAAUUGGUAGCAUUGCCUGUACUCAAGGUCACCAUGUUGUAAGGACAACAGAGGAUUGAGCAUCA
B8: chr21:34924380:34924381:+_ENSG00000159140_ENST00000381679|hu_hu|motif|central (ssRNA)
RNA: GGGAGUUCUACAGUCCGACGAUCUCUAGGUGACAUCCUAUAGGGAUCAGGAGUUAGUCUGUAGGGAUCAUGGCCGGAUCGGUAAGGGUCUUGUCCUAACCUGUAAGCAUCAUGACCUAAUCUAUAGGGGUCAUGGCCCAACCUCAACAGAGGAUUGAGCAUCA
B9: chr16:4561903:4561904:-_ENSG00000089486_ENST00000567695|hu_mus|FALSE|FALSE (ssRNA)
RNA: GGGAGUUCUACAGUCCGACGAUCUCUGCACACUGACUGACUCAAAGAAGCUAGGUAAGAACAGGGGCAAGUUCUUCUCGGUUACCAGAGCUUUAAAUAGCCCAGGAUCCUCUUUGCUUCAUACCAGGCAGCUCUUGAGUGUUUCAACAGAGGAUUGAGCAUCA
B10: 99631505_99631625_1671_CDS_ENSG00000106261_ENST00000324306|human|control|control (ssRNA)
RNA: GGGAGUUCUACAGUCCGACGAUCGUUGAAAGCUUUUCCACAUUCACUACAUUCAUAGGGUUUCUCCCCCGUGUGAAUUCUCUGAUGCUUGGUGAGGUCCGAGCUCUGGCUGAAGGCCUUCCCGCACUCAUUACAUUCAUAAGGCAACAGAGGAUUGAGCAUCA
B11: 33731719_33735661_2417_CDS_ENSMUSG00000075254_ENSMUST00000152782|mouse|control|control (ssRNA)
RNA: GGGAGUUCUACAGUCCGACGAUCCUUCUUUAACUUAAACUCGGUCACAAAGGUUCUAACCAGAUUGCAUAUUCCUUUCUCCAACUGAUACCCGACUGGGCAUCUGCAGGUGAACGAUCCCUGAGUAUUGUUGCACGUGGCUAGCAACAGAGGAUUGAGCAUCA
B12: chr6:33248723:33248724:-_ENSG00000227057_ENST00000374617|hu_hu|FALSE|FALSE (ssRNA)
RNA: GGGAGUUCUACAGUCCGACGAUCUGCUCCAUGGGGCAGGGUCCGAGUGCUCAGAGGCUGGUACGUCCCUCGCAAGUCAAAGAUCUUCAGCUGGUGGUCUAGGCCAGAGGUGGCCAUGUACGUGCCUGUAGAAUCUACUGCCACCAACAGAGGAUUGAGCAUCA
B13: chr5:140076784:140076785:+_ENSG00000112855_ENST00000230771|hu_mus|FALSE|FALSE (ssRNA)
RNA: GGGAGUUCUACAGUCCGACGAUCUCCAGCCUGAGCUGGAGACUCUAGCAGUACUGCUUCAUAAAUCACUCCAGUAUAAUAGUCCAGGCCCCGGGCCAGACUCAGAUCAAGGGAGAUCUUAUCAGCAAUUCCAAAUAACCUCAGCAACAGAGGAUUGAGCAUCA
B14: chr8:104447970:104447971:+_ENSG00000164934_ENST00000297579|hu_hu|hu_hu_hu_mus_False|48_78 (ssRNA)
RNA: GGGAGUUCUACAGUCCGACGAUCAUACACUUCCCUGCUUCGGCUCUUGUCCACAGGAAAGAUUCGAAUAGACUUAUCAAAGCUGGCAGACACAAACUCCUUCCCAGUGGGAGAGUAGUCCACAUCAAGUACUGCAGACACGUGCAACAGAGGAUUGAGCAUCA

The binders below were run against T1, UNK ZnF1-3 (assay: nsRBNS (natural sequence RNA bind-n-seq); RBNS binding buffer (assumed for nsRBNS): 25 mM Tris pH 7.5, 150 mM KCl, 3 mM MgCl2, 0.01% Triton X-100, 500 ug/ml BSA, 20 U/ml SUPERase-In, 4 C; UNK is unkempt and MSI1 is Musashi-1; names of the RNAs are library labels; protein concentration not given here; high values mean tight binding).
With B1 the binding signal was 1.34 enrichment R. B2 was tested, and the binding signal was 1.53 enrichment R. For B3, the binding signal was 1.31 enrichment R. Work on B4 yielded a binding signal of 1.06 enrichment R. B5 showed a binding signal of 1 enrichment R. For B6, the binding signal was 1.48 enrichment R. B7 was tested, and the binding signal was 0.933 enrichment R. For B8, the binding signal was 0.614 enrichment R. B9 gave a binding signal of 1.17 enrichment R. In the case of B10, the binding signal is reported as 0.485 enrichment R. Binder B11 has a binding signal of 0.715 enrichment R. B12 gave a binding signal of 1.32 enrichment R. In the case of B13, the binding signal is reported as 0.71 enrichment R. For B14, the binding signal was 0.993 enrichment R.
